This is one part of the list.
Key:
Assay in all cases: glycan array binding signal (z-score within array); higher = stronger binding
Settings in all cases: glycan notation: IUPAC condensed, linker removed
GalNAc3S(b1-4)GlcNAc3S = target: GalNAc3S(b1-4)GlcNAc3S
Procedure, shortened: (§1)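 Glycan array data were curated from 3228 arrays in the Consortium for Functional Glycomics database and kept only where the protein sequence was available. Glycan names were converted to IUPAC-condensed notation, and columns mapping to the same glycan were averaged. The binding signal is a within-array Z-score, averaged across arrays of the same protein sequence at different concentrations or buffers and across linkers. Negative Z-scores can be read as non-binding.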

[1] = target: GalNAc3S(b1-4)[Fuc(a1-3)]GlcNAc
Procedure, shortened: as §1

GalNAc4S6S(b1-4)GlcNAc = target: GalNAc4S6S(b1-4)GlcNAc
Procedure, shortened: as §1

GalNAc6S(b1-4)GlcNAc = target: GalNAc6S(b1-4)GlcNAc
Procedure, shortened: as §1

Glc(a1-4)Glc = target: Glc(a1-4)Glc
Procedure, shortened: as §1

[2] = target: Glc(a1-4)Glc(a1-4)Glc(a1-4)Glc
Procedure, shortened: as §1

Glc(a1-6)Glc(a1-6)Glc = target: Glc(a1-6)Glc(a1-6)Glc
Procedure, shortened: as §1

[3] = target: Glc(a1-6)Glc(a1-6)Glc(a1-6)Glc
Procedure, shortened: as §1

Glc(b1-4)Glc = target: Glc(b1-4)Glc
Procedure, shortened: as §1

Glc(b1-6)Glc = target: Glc(b1-6)Glc
Procedure, shortened: as §1

GlcA(b1-3)Gal = target: GlcA(b1-3)Gal
Procedure, shortened: as §1

GlcA(b1-3)GlcNAc = target: GlcA(b1-3)GlcNAc
Procedure, shortened: as §1

GlcA(b1-6)Gal = target: GlcA(b1-6)Gal
Procedure, shortened: as §1

[4] = target: GlcA3S(b1-3)Gal(b1-4)GlcNAc(b1-2)Man
Procedure, shortened: as §1

[5] = target: GlcA3S(b1-3)Gal(b1-4)GlcNAc(b1-3)Gal(b1-4)Glc
Procedure, shortened: as §1

[6] = target: GlcNAc(a1-3)Gal(b1-4)GlcNAc
Procedure, shortened: as §1

[7] = target: GlcNAc(a1-4)Gal(b1-3)GlcNAc
Procedure, shortened: as §1

[8] = target: GlcNAc(a1-4)Gal(b1-4)GalNAc
Procedure, shortened: as §1

[9] = target: GlcNAc(a1-4)Gal(b1-4)GlcNAc
Procedure, shortened: as §1

[10] = target: GlcNAc(a1-4)Gal(b1-4)GlcNAc(b1-3)Gal(b1-4)Glc
Procedure, shortened: as §1

[11] = target: GlcNAc(a1-4)Gal(b1-4)GlcNAc(b1-3)Gal(b1-4)GlcNAc
Procedure, shortened: as §1

[12] = target: GlcNAc(a1-4)Gal(b1-4)GlcNAc(b1-3)Gal(b1-4)GlcNAc(b1-3)Gal(b1-4)GlcNAc
Procedure, shortened: as §1

[13] = target: GlcNAc(a1-4)Gal(b1-4)GlcNAc(b1-3)Gal(b1-4)[Fuc(a1-3)]GlcNAc(b1-3)Gal(b1-4)[Fuc(a1-3)]GlcNAc
Procedure, shortened: as §1

[14] = target: GlcNAc(a1-6)Gal(b1-4)GlcNAc
Procedure, shortened: as §1

[15] = target: GlcNAc(b1-2)Gal(b1-3)GalNAc
Procedure, shortened: as §1

[16] = target: GlcNAc(b1-2)Man(a1-3)[GlcNAc(b1-2)Man(a1-6)]Man(b1-4)GlcNAc(b1-4)GlcNAc
Procedure, shortened: as §1

[17] = target: GlcNAc(b1-2)Man(a1-3)[GlcNAc(b1-2)Man(a1-6)]Man(b1-4)GlcNAc(b1-4)[Fuc(a1-6)]GlcNAc
Procedure, shortened: as §1

[18] = target: GlcNAc(b1-2)Man(a1-3)[GlcNAc(b1-4)][GlcNAc(b1-2)Man(a1-6)]Man(b1-4)GlcNAc(b1-4)GlcNAc
Procedure, shortened: as §1

[19] = target: GlcNAc(b1-2)Man(a1-3)[GlcNAc(b1-4)][GlcNAc(b1-2)Man(a1-6)]Man(b1-4)GlcNAc(b1-4)[Fuc(a1-6)]GlcNAc
Procedure, shortened: as §1

[20] = target: GlcNAc(b1-2)[GlcNAc(b1-4)]Man(a1-3)[GlcNAc(b1-2)Man(a1-6)]Man(b1-4)GlcNAc(b1-4)GlcNAc
Procedure, shortened: as §1

[21] = target: GlcNAc(b1-2)[GlcNAc(b1-4)]Man(a1-3)[GlcNAc(b1-4)][GlcNAc(b1-2)Man(a1-6)]Man(b1-4)GlcNAc(b1-4)GlcNAc
Procedure, shortened: as §1

[22] = target: GlcNAc(b1-2)[GlcNAc(b1-4)]Man(a1-3)[GlcNAc(b1-4)][GlcNAc(b1-2)[GlcNAc(b1-6)]Man(a1-6)]Man(b1-4)GlcNAc(b1-4)GlcNAc
Procedure, shortened: as §1

[23] = target: GlcNAc(b1-2)[GlcNAc(b1-4)]Man(a1-3)[GlcNAc(b1-4)][GlcNAc(b1-2)[GlcNAc(b1-6)]Man(a1-6)]Man(b1-4)GlcNAc(b1-4)[Fuc(a1-6)]GlcNAc
Procedure, shortened: as §1

[24] = target: GlcNAc(b1-2)[GlcNAc(b1-6)]Man(a1-6)[GlcNAc(b1-2)Man(a1-3)]Man(b1-4)GlcNAc(b1-4)GlcNAc
Procedure, shortened: as §1

[25] = target: GlcNAc(b1-2)[GlcNAc(b1-6)]Man(a1-6)[GlcNAc(b1-2)Man(a1-3)]Man(b1-4)GlcNAc(b1-4)[Fuc(a1-6)]GlcNAc
Procedure, shortened: as §1

[26] = target: GlcNAc(b1-2)[GlcNAc(b1-6)]Man(a1-6)[GlcNAc(b1-4)][GlcNAc(b1-2)Man(a1-3)]Man(b1-4)GlcNAc(b1-4)GlcNAc
Procedure, shortened: as §1

GlcNAc(b1-3)Fuc = target: GlcNAc(b1-3)Fuc
Procedure, shortened: as §1

GlcNAc(b1-3)Gal = target: GlcNAc(b1-3)Gal
Procedure, shortened: as §1

[27] = target: GlcNAc(b1-3)Gal(b1-3)GalNAc
Procedure, shortened: as §1

GlcNAc(b1-3)Gal(b1-4)Glc = target: GlcNAc(b1-3)Gal(b1-4)Glc
Procedure, shortened: as §1

[28] = target: GlcNAc(b1-3)Gal(b1-4)GlcNAc
Procedure, shortened: as §1

[29] = target: GlcNAc(b1-3)Gal(b1-4)GlcNAc(b1-2)Man(a1-3)[GlcNAc(b1-3)Gal(b1-4)GlcNAc(b1-2)Man(a1-6)]Man(b1-4)GlcNAc(b1-4)GlcNAc
Procedure, shortened: as §1

[30] = target: GlcNAc(b1-3)Gal(b1-4)GlcNAc(b1-2)Man(a1-3)[GlcNAc(b1-3)Gal(b1-4)GlcNAc(b1-2)Man(a1-6)]Man(b1-4)GlcNAc(b1-4)[Fuc(a1-6)]GlcNAc
Procedure, shortened: as §1

[31] = target: GlcNAc(b1-3)Gal(b1-4)GlcNAc(b1-2)[GlcNAc(b1-3)Gal(b1-4)GlcNAc(b1-6)]Man(a1-6)[GlcNAc(b1-3)Gal(b1-4)GlcNAc(b1-2)Man(a1-3)]Man(b1-4)GlcNAc(b1-4)GlcNAc
Procedure, shortened: as §1

[32] = target: GlcNAc(b1-3)Gal(b1-4)GlcNAc(b1-3)Gal(b1-4)GlcNAc
Procedure, shortened: as §1

B1: BDCA-2 (Homo sapiens), Q8WTT0 (protein)
chain: MVPEEEPQDREKGLWWFQLKVWSMAVVSILLLSVCFTVSSVVPHNFMYSKTVKRLSKLREYQQYHPSLTCVMEGKDIEDWSCCPTPWTSFQSSCYFISTGMQSWTKSQKNCSVMGADLVVINTREEQDFIIQNLKRNSSYFLGLSDPGGRRHWQWVDQTPYNENVTFWHSGEPNNLDERCAIINFRSSEEWGWNDIHCHVPQKSICKMKKIYI
glycan array binding signal (z-score) (GalNAc3S(b1-4)GlcNAc3S): -0.175
glycan array binding signal (z-score) [1]: -0.158
glycan array binding signal (z-score) (GalNAc4S6S(b1-4)GlcNAc): -0.173
glycan array binding signal (z-score) (GalNAc6S(b1-4)GlcNAc): -0.174
glycan array binding signal (z-score) (Glc(a1-4)Glc): -0.134
glycan array binding signal (z-score) [2]: -0.144
glycan array binding signal (z-score) (Glc(a1-6)Glc(a1-6)Glc): -0.319
glycan array binding signal (z-score) [3]: -0.081
glycan array binding signal (z-score) (Glc(b1-4)Glc): -0.167
glycan array binding signal (z-score) (Glc(b1-6)Glc): -0.098
glycan array binding signal (z-score) (GlcA(b1-3)Gal): 0.118
glycan array binding signal (z-score) (GlcA(b1-3)GlcNAc): -0.153
glycan array binding signal (z-score) (GlcA(b1-6)Gal): -0.122
glycan array binding signal (z-score) [4]: -0.151
glycan array binding signal (z-score) [5]: -0.189
glycan array binding signal (z-score) [6]: -0.091
glycan array binding signal (z-score) [7]: -0.179
glycan array binding signal (z-score) [8]: -0.161
glycan array binding signal (z-score) [9]: -0.186
glycan array binding signal (z-score) [10]: -0.181
glycan array binding signal (z-score) [11]: -0.173
glycan array binding signal (z-score) [12]: -0.176
glycan array binding signal (z-score) [13]: -0.087
glycan array binding signal (z-score) [14]: 0.006
glycan array binding signal (z-score) [15]: 0.091
glycan array binding signal (z-score) [16]: 0.846
glycan array binding signal (z-score) [17]: -0.075
glycan array binding signal (z-score) [18]: -0.129
glycan array binding signal (z-score) [19]: -0.093
glycan array binding signal (z-score) [20]: -0.125
glycan array binding signal (z-score) [21]: -0.172
glycan array binding signal (z-score) [22]: -0.186
glycan array binding signal (z-score) [23]: -0.191
glycan array binding signal (z-score) [24]: 0.342
glycan array binding signal (z-score) [25]: -0.072
glycan array binding signal (z-score) [26]: -0.167
glycan array binding signal (z-score) (GlcNAc(b1-3)Fuc): -0.167
glycan array binding signal (z-score) (GlcNAc(b1-3)Gal): -0.168
glycan array binding signal (z-score) [27]: -0.224
glycan array binding signal (z-score) (GlcNAc(b1-3)Gal(b1-4)Glc): 0.173
glycan array binding signal (z-score) [28]: 0.016
glycan array binding signal (z-score) [29]: -0.169
glycan array binding signal (z-score) [30]: -0.145
glycan array binding signal (z-score) [31]: -0.191
glycan array binding signal (z-score) [32]: 0.182

Reference: the supplement of paper PMC8728848
